# Laboratory results published in the supplement of paper PMC11417369.
# This is one part of the list.
# System: PfAP2-HC AP2 domain (GST-tagged)
# Test: gcPBM binding intensity (ln(normalized median fluorescence intensity)); higher = stronger DNA binding
# Outline: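 Using an Agilent 4 × 180k array, primer-extended double-stranded 36-bp intergenic genomic probes and negative controls were exposed for 1 h to GST-fused P. falciparum DNA-binding domains expressed in E. coli. Binding was carried out in 1× PBS with 1% milk, 0.2 mg/ml BSA, 0.5% salmon testes DNA and 0.03% Triton X-100, and protein was detected with Alexa488 anti-GST antibody and a 488 nm scan. Binding intensity is the highest Masliner-normalised natural-log median intensity across replicate spots of either probe orientation.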
row,Sequence,gcPBM binding intensity (ln)
1,TTTAAAAGATAAAACACACATACTAATAAAAAACAA [CACACA_site2556],9.92
2,TTGTATCCTTAATGCATGCACCAAATAACAAAAGTA,9.44
3,AAAAAAAAAAAAAAAAGGGGGGGAGGGATTGAAAAA [CACACA_negctrl_site193],9.92
4,ACAGTATTTCGAGATGGTACACATATATATATATAT [XGTACX_site6880],9.78
5,AATGAGGATATATACACACATACATTAAAAAAATAT [CACACA_site1849],9.96
6,ACATATATAAAATAATGTACATTTTTAAGAATGCGT [XGTACX_site7654],9.76
7,ATTATAATTGCATATACACACAAAGGTTCATAACAA [CACACA_site7440],9.76
8,TAAAGGCAAACAAACACACACACATATATACATATA [CACACA_site2123],11.1
9,CCAATACTGTTTAAATGTACAAGTAGGAGGTTAATT [XGTACX_site7260],9.57
10,AAAAATTAACAAAAGGTGCAAACAAATAGTGGTTTT [GTGCAC_site9998],10.1
11,AAAATTTAATATAATGCACACATAAAAAAAAATTCA [CACACA_site8640],9.77
12,TCCTGCCTCTCTTTGGTGCGTTGTAACCCTCGAGGA,9.55
13,ATATTAATATACATATGTACATATATATATATATAT [XGTACX_site7425],9.8
14,TAAATTATTTATAAAGCACACAAGAAAAAATAAAAT [CACACA_site2132],9.84
15,ATATATATGTATATGTGTACTTATATTTGTCATTTT [XGTACX_site1317],9.74
16,GAACAAAAGGAATGTTGTACATAAAAAATGAAAAAT [XGTACX_site3929],9.8
17,AAAAAAATTAAACACACACACACATATATATATATA [CACACA_site4718],11.5
18,AAAAAAGTAAAAAGTGCATGTAAAATATAAGTATCT [TGCATGCA_site55],10.2
19,TTTTTTTTTTATTTTGCACACTTCTAATTTAGTTGT [CACACA_site3429],9.9
20,GTTATTCTTAATTTTTGTACACATTTTTATATTATT [XGTACX_site7227],10.1
21,AATTCCTATAATGAGAGTACGCATTAGAACAGTAGG [XGTACX_site5721],9.66
22,TTGATAAAAAAAAAAAAATAAAAAAAAAATAAAAAA [XGTACX_negctrl_site480],9.29
23,AATAAATATATAAATACACACAAACATACAGATATA [CACACA_site6088],10.2

row,Sequence,gcPBM binding intensity (ln)
1,TTTAAAAGATAAAGACTGCACTTTAAGCACACAAAT [GTGCAC_site9752],9.7
2,TTTATATCGACTCTTCTTTATATAAGTTGTGATGTT [TGCATGCA_negctrl_site362],9.76
3,TAAAGTGTAAAGAAGGTGCTCATTATTTATTTTTTT,9.62
4,AGTTTCCTTGAGAAAAGTACGTAATACTACATATAT [XGTACX_site818],9.91
5,TTTATATTAGGTCTTGAACGATTTTCATCATTATTA [TGCATGCA_negctrl_site100],9.52
6,ATATGATATATTTTATGTACATATAAAACATATATA [XGTACX_site4297],9.51
7,TTATACTTTTTTTCTTGGTGTAGAAAAAAAAGTTAG [CACACA_negctrl_site1207],9.22
8,AAAAAAGAAACAAACACACATACATACAAACAAACA [CACACA_site142],10.6
9,AAATTGTAGAAGCGTATTTCTCGAACTGGATGAATA [CACACA_negctrl_site1373],9.72
10,AATTAATGGAAACAAGTCAAATGATCTTTATGCATA [TGCATGCA_negctrl_site540],9.53
11,AACAAGGCCCGGTACTGTACATTTTTTCATAACATT [XGTACX_site6134],9.62
12,TATATACATATATACACACACATATATTATATATAT [CACACA_site275],10.4
13,GTATGTATATTTATCTGTACATATTTATGTATTCTT [XGTACX_site2112],9.87
14,AAAATATAAATTCATGTGCACATATATATTTTGTTA [GTGCAC_site9782],9.68
15,AGGAAAAAATCGAGTAGTACACATTTAGAAATATAA [XGTACX_site8019],9.6
16,ATATCACATATATATATATATATATATATATATATA [XGTACX_negctrl_site463],9.55
17,AAAATTGATATATGCACACATATATATATTAAATAT [CACACA_site763],9.98
18,TTTCATTCTGGTATCACACATTTATTTTCTAGTTTA [CACACA_site4286],9.81
19,AAAAAAAAAAAAAACACACATACACATATATTTTTA [CACACA_site3893],9.76
20,TATAAATATAAAAGGAGTACAAATATATATATATAT [XGTACX_site1386],10.1
21,AGTTATAATAAAAAATGTACGTATTATCATTAAGAA [XGTACX_site4244],9.79
22,TTTTTTTTTATAGCTAAACACACATAAGAATATATG [CACACA_site8282],9.61
23,TCCTAATATATGTATGCACACACAATATATACATAT [CACACA_site9111],10.1

row,Sequence,gcPBM binding intensity (ln)
1,GAAAATAAAAAATATGAACACACATATATAACAAAA [CACACA_site7975],10.5
2,AAAAAAATTAAACATACACACGTTACTATTTTTATA [CACACA_site5009],9.84
3,TTATTAATTTATAAATGTACGAATTTTTTATTTAAC [XGTACX_site7605],9.29
4,CATATCAATAATATCACACATATATGTGATTTTATT [CACACA_site5053],9.7
5,CCCCTTAATTAAAGGAGTACTATTTGTGAATAATAT [XGTACX_site4715],9.69
6,TTTATGTAGGAACTAACACACATTGTAAGATTCAGA [CACACA_site1998],9.69
7,GGAACTTTTGGAGGTGCATGCGGAGCAATCTTTTCA [TGCATGCA_site454],9.49
8,TTTAAACCTTAATATTGTACGCAAAAAAAAAAAGAA [XGTACX_site3757],9.59
9,TATTAATAATTAAGTTGTACATTAATTAATATACTG [XGTACX_site6994],9.4
10,TTTAATATTAATAATTGTACATTTTCATAAATACGC [XGTACX_site2837],9.51
11,AGGACAAGGGTTACATGTACATATATATATATATAT [XGTACX_site901],10.6
12,CCTAGAAAAAAGAACTGTACATATATATATAAATAT [XGTACX_site1680],9.54
13,TTAATTGAAACTTATTGTACTTTTTTTTTTTTTTTT [XGTACX_site8162],9.3
14,ATAAATAAAAATAGAACACACATATGTTTTTTTTTT [CACACA_site3556],9.77
15,ATATGCAGAGACTGTTTGCACTTTTTTATTTTATGT [GTGCAC_site9695],9.9
16,TGAAAAAATATAATTTGTACATATCAGGCAAAAATG [XGTACX_site1824],9.77
17,CTCAAATTTATTAGTGGTACATAACCAAGGAAATAA [XGTACX_site225],9.68
18,ATTATAATTACTCTAGTGCATTATAAATATGAATAA,9.45
19,AAGTTATTTATATATACACACAAATATAAATAATAT [CACACA_site1228],9.83
20,ATAAATTATATTATTGAACACACGTTTGGTAATGTT [CACACA_site2662],9.88
21,AAAAAAATAATAAAAAGTACAAAATGTAGAAAATGT [XGTACX_site5018],10.1
22,AAAAAATAAAACATATATAATATATAATATATATAT [GTGCAC_negctrl_site447],9.65
23,AATGTGAAAACGTGTACACATTTTATTTAATTTATC [CACACA_site5966],9.78

row,Sequence,gcPBM binding intensity (ln)
1,ATATATATTATATATTGTACATATTATATTCATTAT [XGTACX_site1766],9.72
2,TTTATTAATTTATAGTGTACATATTAATAATATATT [XGTACX_site7949],9.6
3,GATTATACAAAATATACACACGTGTACAGAAATATT [CACACA_site8305],10.1
4,ATATATTTATTTATATGTACATATTATATATTATAG [XGTACX_site3371],9.75
5,TTATATTAATTTTGTTGTACTATTTGTGCATTAAAT [XGTACX_site4790],9.62
6,CACAGACACGGACACACACACATATATAATATATAT [CACACA_site4495],10.8
7,AAGATATGAACATTTTGTACTTAAAAATTCAATATT [XGTACX_site7103],9.55
8,TAAACAAATAAATATTGTACATTTTTTCCTTTTAAT [XGTACX_site5594],9.57
9,TTTATATAAAATTATTGTACAGTTTTAATATTTTAA [XGTACX_site6807],9.32
10,AAGGATAATATATTAGAACACACATATATATGTAAA [CACACA_site7942],9.98
11,TACATACACAAATACACACACAAATACATACACAAA [CACACA_site704],10.6
12,ACATTTTATATATGTAGTACATATTATAGATAATTT [XGTACX_site1976],9.61
13,AGTTGGATACGAAGATGTACAATAATAATAATTAAG [XGTACX_site3561],9.67
14,ATCAAAAACATACCTACACACACAATATGTATATAT [CACACA_site9171],10.1
15,TATTTTATTTTTTTATGTACACAAAAAAAAAAAAAA [XGTACX_site945],9.11
16,TCACTATAATAATTTACACACATTTTAAGAAAATGG [CACACA_site5867],9.6
17,TATTATGTTTATTAAACATGCATATATTTATTTATA [TGCATGCA_site187],9.55
18,ATATTTTATCATGTTTAATATTTATGTGGACATAAA [GTGCAC_negctrl_site275],9.33
19,TACAATCCATATTGTTGTACATTTATAAAATTTACA [XGTACX_site3053],9.46
20,CAATGGTACATACATACACACACACTAATAAAAAAA [CACACA_site8450],10.5
